This is an account of results in article PMC12136788.

This is one part of the list.

T1: UNK ZnF1-3 (human, UniProt Q9C0B0 31-174)
T1 sequence: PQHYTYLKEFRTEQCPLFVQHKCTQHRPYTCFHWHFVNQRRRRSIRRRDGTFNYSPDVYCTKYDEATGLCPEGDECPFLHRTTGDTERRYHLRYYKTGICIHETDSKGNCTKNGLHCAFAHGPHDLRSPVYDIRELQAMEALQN

B1: chr11:87793471:87793472:-_ENSMUSG00000020483_ENSMUST00000020775|mus_hu|FALSE|FALSE (ssRNA)
RNA: GGGAGUUCUACAGUCCGACGAUCUGGACUUGAAAAUAAAAGAAUAAGCUGGAUCCCCCACCCCCCCACAUUGUCAACCCUACACGAGAGUUUUGAAGGCGACUCAUGAAAAUCAGCAGCUCAAACGGCAAUGACCACCCCACCCAACAGAGGAUUGAGCAUCA
B2: 15823076_15823196_455_5pUTR_ENSMUSG00000020601_ENSMUST00000020922|mouse|control|control (ssRNA)
RNA: GGGAGUUCUACAGUCCGACGAUCGAGUAGGGAGUGCGCGGAGUAGGGCAGGCACAGGUACCGCGACAAAGCCCAAGGCAGAGCCCGCGCGGUCAGCACUAGCUCUUGCUGUCGCUGCUCACGUCCCAGAUCCUCCUCCGAUGACAACAGAGGAUUGAGCAUCA
B3: chr1:29344795:29344796:+_ENSG00000159023_ENST00000356093|hu_hu|motif|central (ssRNA)
RNA: GGGAGUUCUACAGUCCGACGAUCGAGUUCUGGGUCGUAGUCUCCCAGUUCAGACUGGAUGGUGUAAGAACCUAAUAAUGCGGAGGUUGCAAAGGAACAGGGCAGACGUCCUGCAACUAUGUCCUGCCGAAGCUGAAGACAUAACAACAGAGGAUUGAGCAUCA
B4: chr5:128448638:128448639:+_ENSG00000066583_ENST00000173527|hu_mus|hu_hu_hu_mus_False|48_78 (ssRNA)
RNA: GGGAGUUCUACAGUCCGACGAUCGGCACUCGCCUUAAUUAGGUUCUGAAUUUCCUUGAAUUUUGGAUGGUCUUUGUCAGCCACCAGCUGAAGCAGAACAGCCUCACUAGUGGUCACGAUGAUCCCAGUGCGGGCAAGACGCUCCAACAGAGGAUUGAGCAUCA
B5: 30140768_30140888_1046_CDS_ENSMUSG00000075419_ENSMUST00000100219|mouse|control|control (ssRNA)
RNA: GGGAGUUCUACAGUCCGACGAUCCACACAGGUCAUGAGGUGGAAGAAGAUGGAAGAGGCCCAGGUGCCUGAAUCCAUGAAGACAAAGAGGGUGCUGAAAAAGACACCCAUGAGCACCAUCCCUACCACCACCACCAACAGGAACAACAGAGGAUUGAGCAUCA
B6: chr19:55172049:55172050:-_ENSMUSG00000024978_ENSMUST00000061856|mus_mus|FALSE|FALSE (ssRNA)
RNA: GGGAGUUCUACAGUCCGACGAUCGGUGUGUUUACAUCGGCCAAGGCUGUAUUCCGAUGAACUGGGCAGAUAAGAAACGUCUAUUGUGCCAACUGUCACUGAAGACUCCUCCAUGGCAGAACGUGCAAGUCCCAAACCAUGUGCCAACAGAGGAUUGAGCAUCA
B7: chr1:45868982:45868983:+_ENSMUSG00000025995_ENSMUST00000027139|mus_mus|FALSE|FALSE (ssRNA)
RNA: GGGAGUUCUACAGUCCGACGAUCAGAAGUACAGAACAAAUCUCCUGCAGGUGAGACAGAGAUGUGCUCAAUAGAAGAUCCUAAUCGAGGAAGAAACUCUUUGUUCUUCUCUGAUCCAUCUCGCCACUCCACAAGCACACACUCCAACAGAGGAUUGAGCAUCA
B8: chr1:127303955:127303956:-_ENSMUSG00000026341_ENSMUST00000027579|perfect_dup|motif|central (ssRNA)
RNA: GGGAGUUCUACAGUCCGACGAUCUAUUACCGUACCGGUCAACGUCCGUUCUCCUACUUGUCUUGAGGUCCAAGAUGCAGCGGAGGCAAGAACAGCCUGCACAGCAAUGUACAAGCCUGGAACAUUGAAGGACUCAAACAUUAUCAACAGAGGAUUGAGCAUCA
B9: 101936383_101936503_585_CDS_ENSG00000164924_ENST00000353245|human|control|control (ssRNA)
RNA: GGGAGUUCUACAGUCCGACGAUCUUUCUCUGGGGAGUUCAGAAUCUCAUAAUAGAACACAGAGAAGUUAAGGGCCAGACCCAGUCUGAUAGGAUGUGUUGGUUGCAUUUCCUUUUUGCUGAUUUCAAAAGCUUCUUGGUAUGCCAACAGAGGAUUGAGCAUCA
B10: chr10:41618152:41618153:+_ENSMUSG00000038332_ENSMUST00000041438|mus_hu|FALSE|FALSE (ssRNA)
RNA: GGGAGUUCUACAGUCCGACGAUCCGGCAUCUCAUCCACACUGUGAUUGCCAUUUGUAAUGUCACAGAUGCAGUAGUUGCUAACAGAAGGAGGUCUGAAUGUGUGGCCACCAUCACAAUGAAUUUCUGGACUGAUUCCACAGCCCAACAGAGGAUUGAGCAUCA
B11: chr3:121486967:121486968:-_ENSMUSG00000028127_ENSMUST00000029770|mus_mus|FALSE|FALSE (ssRNA)
RNA: GGGAGUUCUACAGUCCGACGAUCUCCAAUUGCACUUGUUAACUUGAAAAUAUAUAAAACUAUGUCUAAAAAUGGCUUACUAAGAUUUGAAUACAGAUCGACUACACUGUUACAAAAUUUUUCUACAUCCUGUGUAAGCAGCUGCAACAGAGGAUUGAGCAUCA
B12: chr4:56291666:56291667:+_ENSG00000134851_ENST00000381334|hu_mus|motif|central (ssRNA)
RNA: GGGAGUUCUACAGUCCGACGAUCAAAAUACAGUGUUUCCCAUUACUUUUAGUUGUAAUGUACACUAUGUACAGAAAAGAGUUGCCGGUCUUAAGCUGAAUACUGAAGAACAGCUUGUUAAAAACCAGACUCUGGACUUAUAAACAACAGAGGAUUGAGCAUCA
B13: 80654953_80657498_2791_CDS_ENSMUSG00000035051_ENSMUST00000038166|mouse|control|control (ssRNA)
RNA: GGGAGUUCUACAGUCCGACGAUCUUCUGCCAGCCCUGGUAAGAACACAAGGACAGCGCCUGGAGGGUAGGCGUGCUUGCCGUCUACAAUCCACUCUAACAAGGCCUCUAUUAGUUCAAGGUUGACCUUUUCAAAAUCCAUCACCAACAGAGGAUUGAGCAUCA
B14: chr2:216981417:216981418:+_ENSG00000079246_ENST00000392132|hu_hu|hu_hu_hu_mus_True|1_48 (ssRNA)
RNA: GGGAGUUCUACAGUCCGACGAUCCUGAUACUGGUCCUUGCCAGCAAGGGCAUUAUCAGUGCCAUCUGUGCCAUAGAGGACUAACGCAAUCUCAUCCUUGCUCUCCGAAAAUACCUGUCGUUGGACAAACAUAGUCAUCACCUUCAACAGAGGAUUGAGCAUCA
B15: chr2:37325018:37325019:+_ENSMUSG00000035437_ENSMUST00000112920|perfect_dup|motif|central (ssRNA)
RNA: GGGAGUUCUACAGUCCGACGAUCAUUAUUUGUAGAUGGUGUCUCAUCUCCUUGCCUGGAAACCAAGACAAAAUCUUCACGGUUAAGAGUAGACACUGAGUCUGAUGAGACACUGAUUUUUCCAACAGAGGCCUUGUCAUCCAUCAACAGAGGAUUGAGCAUCA
B16: chr2:17927185:17927186:-_ENSG00000163029_ENST00000351948|hu_hu|FALSE|FALSE (ssRNA)
RNA: GGGAGUUCUACAGUCCGACGAUCUUUAUCAAAAUCCUCCAAUUCUUCUUGUCUUGGCCUUUUGGCAUUUUUAGGAGAGGAAAAAUUUUCUUCCUUUCUUUUGGCCAUCAGGUCGCCAACAAGUCGAAGUCUCCCAAAGGAACCCAACAGAGGAUUGAGCAUCA
B17: chr7:36427155:36427156:-_ENSMUSG00000030417_ENSMUST00000118501|mus_hu|motif|central (ssRNA)
RNA: GGGAGUUCUACAGUCCGACGAUCACAAAGUAAAUAAUCAGAUCUUAACUUCUGUCCUAGACUUGUUCCGUUAAGUUCGGGUCUGUGAGCACUUGUAGUUCAAUAAUCGUCAUCUUCAUCAGAGUCCAUUACUUUUCUUCUGUUCAACAGAGGAUUGAGCAUCA
B18: chr17:79190952:79190953:-_ENSMUSG00000039414_ENSMUST00000097281|mus_hu|FALSE|FALSE (ssRNA)
RNA: GGGAGUUCUACAGUCCGACGAUCGCUAUGAUCAGUUGCAGCCAUGAAUGCCAUGCGAAUGAGGUCAGAGAGAUGAAGUACCAAGAGGUCAUUUGUAGGGUUUCGAAGUUUAGCAGAACGUGCCAAGGCAAGAUCAAAGUGAGCCAACAGAGGAUUGAGCAUCA
B19: chr1:182352875:182352876:-_ENSG00000135821_ENST00000339526|hu_hu|motif|central (ssRNA)
RNA: GGGAGUUCUACAGUCCGACGAUCCAUAAUCCACAAAACCAUACAUAUAGUUUUUUGUCUUUACAUUUAAAUAUAAAAAUACGGUUCUGCUUUGUGUGAUAAAUCAAGGACCAAGCAGUAAGAACCUUUUCUUCUUUCAAGGUACAACAGAGGAUUGAGCAUCA
B20: chr4:108954403:108954404:+_ENSG00000138796_ENST00000309522|hu_hu|FALSE|FALSE (ssRNA)
RNA: GGGAGUUCUACAGUCCGACGAUCAGUAUCCAGUCCGACAUAAUCUAGAAGCUCAAAUGGGCCCAUGGGGUAACCGGCUCCUAAUUUCAUAGCAGUGUCAAUGUCUUCUUUGGAUGCGUCACCUCGUUCAUACAGCCUGAUUGCCAACAGAGGAUUGAGCAUCA
B21: chr8:117878989:117878990:-_ENSG00000164754_ENST00000297338|hu_hu|hu_hu_hu_mus_True|18_98 (ssRNA)
RNA: GGGAGUUCUACAGUCCGACGAUCCCAGAGGCCCUCGUUUACUGAGAACAAAAUGUGCGUAGAACAUUUUUCUUAUUUGCUAUGAAAUAAGAAGAAACCUGGAUCUCGGCGGGGAGCUUGGGCGGGCGGGUGGCCCGGGGAGGGCAACAGAGGAUUGAGCAUCA
B22: chr10:112361861:112361862:+_ENSG00000108055_ENST00000361804|hu_hu|FALSE|FALSE (ssRNA)
RNA: GGGAGUUCUACAGUCCGACGAUCAAUAGCUUCAUAUUUCCGAAGUUCAAGUACAUUCAUCAGUUCCAUGAUUGAUUUGUAACCCCUAUCUAACUCUUCUUGACGCUUUAUUAACUUUUCUUUCUGCUCGGAGAAAUUUACAAACAACAGAGGAUUGAGCAUCA

The target in the assay is T1, UNK ZnF1-3. Kind of assay: nsRBNS (natural sequence RNA bind-n-seq); RBNS binding buffer (assumed for nsRBNS): 25 mM Tris pH 7.5, 150 mM KCl, 3 mM MgCl2, 0.01% Triton X-100, 500 ug/ml BSA, 20 U/ml SUPERase-In, 4 C; UNK is unkempt and MSI1 is Musashi-1; names of the RNAs are library labels; protein concentration not given here; high values mean tight binding.
Molecule B1 showed a binding signal of 2.16 enrichment R.

The molecule B2 showed a binding signal of 0.308 enrichment R.

B3 came in with a binding signal of 0.747 enrichment R.

B4: the binding signal came to 0.687 enrichment R.

B5: the binding signal was determined as 1.87 enrichment R.

Molecule B6 yielded a binding signal of 0.768 enrichment R.

The molecule B7 displayed a binding signal of 0.962 enrichment R.

The molecule B8 came in with a binding signal of 0.898 enrichment R.

The molecule B9 gave a binding signal of 1.23 enrichment R.

B10 showed a binding signal of 1.1 enrichment R.

B11 registered a binding signal of 1.81 enrichment R.

In turn, B12 gave a binding signal of 0.563 enrichment R.

On to B13, for which the binding signal was found to be 0.829 enrichment R.

B14 returned a binding signal of 0.735 enrichment R.

B15 came in with a binding signal of 0.558 enrichment R.

B16 had a binding signal of 0.383 enrichment R.

Molecule B17 came in with a binding signal of 0.749 enrichment R.

B18 yielded a binding signal of 1.38 enrichment R.

B19 showed a binding signal of 0.807 enrichment R.

In the case of B20, the binding signal was 1.41 enrichment R.

The molecule B21 had a binding signal of 1.03 enrichment R.

As to B22, the binding signal worked out at 0.658 enrichment R.
